Assay results reported in article PMC5681660, “Reduced hepatitis B and D viral entry using clinically applied drugs as novel inhibitors of the bile acid transporter NTCP” (Scientific Reports, 2017).
Structures can show the parent of a compound that is named as a salt. Where two headings read alike, the source gives them in different places.

Legend:
human NTCP [1] = molecular target: T1, human NTCP (Homo sapiens, UniProt Q14973); assay: Screening taurocholate uptake assay (96-well, [14C]taurocholate, 10 µM drug); settings: for remaining activity at 10 µM: 10 min
T1 sequence (Q14973 1-349): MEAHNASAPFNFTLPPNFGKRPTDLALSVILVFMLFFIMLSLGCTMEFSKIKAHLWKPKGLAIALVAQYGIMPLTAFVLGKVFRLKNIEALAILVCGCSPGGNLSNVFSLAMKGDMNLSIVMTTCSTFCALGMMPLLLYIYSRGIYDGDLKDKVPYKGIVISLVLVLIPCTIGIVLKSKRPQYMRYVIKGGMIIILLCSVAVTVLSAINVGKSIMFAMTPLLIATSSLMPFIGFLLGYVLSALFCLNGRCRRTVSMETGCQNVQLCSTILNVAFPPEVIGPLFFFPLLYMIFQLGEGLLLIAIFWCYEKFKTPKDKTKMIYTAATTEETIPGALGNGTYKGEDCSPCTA

human NTCP [2] = molecular target: T1, human NTCP; assay: Screening fluorescent competitive Myrcludex B-FITC binding assay (96-well, 10 µM drug); settings: for remaining activity at 10 µM: 0.5 h
[3] = Prestwick library screen, 10 µM drug, Myrcludex B-FITC binding
[4] = screen, 10 µM drug, Myrcludex B-FITC binding
[5] = Prestwick library screen, [14C]taurocholate uptake, 10 µM drug
[6] = Prestwick library screen, Myrcludex B-FITC binding, 10 µM drug
[7] = screen, 10 µM drug, [14C]taurocholate uptake
[8] = Prestwick library screen, 10 µM drug, [14C]taurocholate uptake
[9] = read-out: %NTCP binding, Prestwick library screen, Myrcludex B-FITC binding, 10 µM drug
[10] = read-out: %NTCP binding, screen, 10 µM drug, Myrcludex B-FITC binding
[11] = screening taurocholate uptake, 10 µM drug, Prestwick library

Br.COc1ccc2c(c1)[C@]13CCCC[C@@H]1[C@H](C2)N(C)CC3.O
%NTCP activity (human NTCP [1]): 49.565% | %NTCP binding (human NTCP [2]; [3]): 72.4571%

COc1cc2c(cc1OC)C(C)NCC2.Cl (stereo not drawn)
%NTCP activity (human NTCP [1]): 104.808% | %NTCP binding (human NTCP [2]; [3]): 82.2306%

Cc1ccc(Cl)c(Nc2ccccc2C(=O)[O-])c1Cl.O.[Na+]
%NTCP activity (human NTCP [1]): 66.0562% | %NTCP binding (human NTCP [2]; [4]): 37.4523%

Cl.Cl.Cl.Cl.Cl.NCCNCCNCCNCCN
%NTCP activity (human NTCP [1]; [5]): 96.2659% | %NTCP binding (human NTCP [2]; [6]): 85.0492%

CCCCC(C)(O)C/C=C/[C@H]1[C@H](O)CC(=O)[C@@H]1CCCCCCC(=O)OC (mixture of isomers) [Misoprostol]
remaining activity at 10 µM (human NTCP [1]; read-out: %NTCP activity): 124% | remaining activity at 10 µM (human NTCP [2]; read-out: %NTCP binding): 99.3%

CN(N=O)C(=O)N[C@H]1C(O)O[C@H](CO)[C@@H](O)[C@@H]1O (mixture of isomers) [Streptozotocin]
%NTCP activity (human NTCP [1]; [7]): 69.3712% | %NTCP binding (human NTCP [2]; [4]): 117.89%

Cl.NCC(O)c1ccc(O)cc1 (racemic) [(+,-)-Octopamine hydrochloride]
%NTCP activity (human NTCP [1]): 75.3776% | %NTCP binding (human NTCP [2]; [3]): 84.3899%

NCC(CC(=O)O)c1ccc(Cl)cc1 (racemic) [Baclofen (R,S)]
%NTCP activity (human NTCP [1]): 50.4585% | %NTCP binding (human NTCP [2]; [3]): 83.317%

COC(=O)C1=C(C)NC(C)=C(C(=O)O[C@@H]2CCCN(Cc3ccccc3)C2)[C@@H]1c1cccc([N+](=O)[O-])c1.Cl (racemic) [Benidipine hydrochloride]
%NTCP activity (human NTCP [1]): 53.5157% | %NTCP binding (human NTCP [2]; [4]): 79.0898%

CC(C)(S)C(N)C(=O)O (racemic) [D,L-Penicillamine]
%NTCP activity (human NTCP [1]; [8]): 111.132% | %NTCP binding (human NTCP [2]; [3]): 87.7937%

OCC(O)CN1CCN(c2ccccc2)CC1 (racemic) [Dropropizine (R,S)]
%NTCP activity (human NTCP [1]): 31.2029% | %NTCP binding (human NTCP [2]; [6]): 84.3257%

COCCc1ccc(OCC(O)CNC(C)C)cc1.COCCc1ccc(OCC(O)CNC(C)C)cc1.O=C(O)C(O)C(O)C(=O)O (racemic) [Metoprolol-(+,-) (+)-tartrate salt]
%NTCP activity (human NTCP [1]): 70.9682% | %NTCP binding (human NTCP [2]; [4]): 99.6535%

CN1CCC2(C)c3cc(O)ccc3N(C)C12.O=C(O)/C=C/C(=O)O (single isomer, unassigned; (-)) [(-)-Eseroline fumarate salt]
%NTCP activity (human NTCP [1]): 43.2314% | %NTCP binding (human NTCP [2]; [6]): 91.3948%

CC(C)NCC(O)c1ccc(O)c(O)c1.Cl (single isomer, unassigned; (-)) [(-)-Isoproterenol hydrochloride]
%NTCP activity (human NTCP [1]; [8]): 140.466% | %NTCP binding (human NTCP [2]; [3]): 95.4986%

Nc1ccccc1S(N)(=O)=O [2-Aminobenzenesulfonamide]
remaining activity at 10 µM (human NTCP [1]; read-out: %NTCP activity): 49.5% | remaining activity at 10 µM (human NTCP [2]; read-out: %NTCP binding): 124%

Clc1cnccn1 [2-Chloropyrazine]
remaining activity at 10 µM (human NTCP [1]; read-out: %NTCP activity): 120% | remaining activity at 10 µM (human NTCP [2]; [9]): 82%

Nc1ccc(C(=O)O)c(O)c1 [4-aminosalicylic acid]
remaining activity at 10 µM (human NTCP [1]; read-out: %NTCP activity): 124% | remaining activity at 10 µM (human NTCP [2]; [10]): 82.9%

O=c1[nH]cc(F)c(=O)[nH]1 [5-fluorouracil]
remaining activity at 10 µM (human NTCP [1]; read-out: %NTCP activity): 92.8% | remaining activity at 10 µM (human NTCP [2]; read-out: %NTCP binding): 95.2%

c1coc(CNc2ncnc3nc[nH]c23)c1 [6-Furfurylaminopurine]
%NTCP activity (human NTCP [1]): 100.035% | %NTCP binding (human NTCP [2]; [6]): 78.2733%

CC(C)NC[C@@H](O)c1ccc(O)c(O)c1.O=C(O)C(O)C(O)C(=O)O [(+)-Isoproterenol (+)-bitartrate salt]
%NTCP activity (human NTCP [1]; [5]): 65.54% | %NTCP binding (human NTCP [2]; [6]): 118.941%

C[C@@]12N[C@@H](Cc3ccccc31)c1ccccc12.O=C(O)/C=C\C(=O)O [(-)-MK 801 hydrogen maleate]
%NTCP activity (human NTCP [1]): 58.5177% | %NTCP binding (human NTCP [2]; [6]): 84.7031%

CC(C)NC[C@@H](O)COc1ccc(CC(N)=O)cc1 [(R)-(+)-Atenolol]
%NTCP activity (human NTCP [1]): 68.3527% | %NTCP binding (human NTCP [2]; [6]): 79.4949%

CC(C)NC[C@@H](O)COc1cccc2ccccc12.Cl [(R)-Propranolol hydrochloride]
%NTCP activity (human NTCP [1]): 79.9127% | %NTCP binding (human NTCP [2]): 84.3247%

CC(C)NC[C@H](O)COc1ccc(CC(N)=O)cc1 [(S)-(-)-Atenolol]
%NTCP activity (human NTCP [1]): 41.7476% | %NTCP binding (human NTCP [2]; [4]): 80.7107%

CC(C)NC[C@H](O)COc1cccc2ccccc12 [(S)-propranolol hydrochloride]
remaining activity at 10 µM (human NTCP [1]; read-out: %NTCP activity): 66.5% | remaining activity at 10 µM (human NTCP [2]; read-out: %NTCP binding): 97.8%

Nc1nc(NC2CC2)c2ncn([C@H]3C=C[C@@H](CO)C3)c2n1 [Abacavir Sulfate]
remaining activity at 10 µM (human NTCP [1]; read-out: %NTCP activity): 75.4% | remaining activity at 10 µM (human NTCP [2]; read-out: %NTCP binding): 125%

C[C@H]1O[C@H](O[C@H]2[C@H](O)[C@@H](O)[C@@H](O[C@H]3[C@H](O)[C@@H](O)C(O)O[C@@H]3CO)O[C@@H]2CO)[C@H](O)[C@@H](O)[C@@H]1N[C@H]1C=C(CO)[C@@H](O)[C@H](O)[C@H]1O (stereo partly drawn) [Acarbose]
remaining activity at 10 µM (human NTCP [1]; read-out: %NTCP activity): 138% | remaining activity at 10 µM (human NTCP [2]; read-out: %NTCP binding): 80.8%

O=C(O)COC(=O)Cc1ccccc1Nc1c(Cl)cccc1Cl [Aceclofenac]
remaining activity at 10 µM (human NTCP [1]; read-out: %NTCP activity): 74.6% | remaining activity at 10 µM (human NTCP [2]; read-out: %NTCP binding): 69.8%

Cn1c(=O)c2c(ncn2CC(=O)O)n(C)c1=O [Acefylline]
remaining activity at 10 µM (human NTCP [1]; read-out: %NTCP activity): 97.7% | remaining activity at 10 µM (human NTCP [2]; read-out: %NTCP binding): 87.6%

COc1ccc2c(c1)c(CC(=O)OCC(=O)O)c(C)n2C(=O)c1ccc(Cl)cc1 [Acemetacin]
remaining activity at 10 µM (human NTCP [1]; read-out: %NTCP activity): 53.2% | remaining activity at 10 µM (human NTCP [2]; read-out: %NTCP binding): 56.6%

CC(=O)CC(c1ccc([N+](=O)[O-])cc1)c1c(O)c2ccccc2oc1=O (stereo not drawn) [Acenocoumarol]
remaining activity at 10 µM (human NTCP [1]; read-out: %NTCP activity): 71.3% | remaining activity at 10 µM (human NTCP [2]; read-out: %NTCP binding): 75.5%

CC(=O)Nc1nnc(S(N)(=O)=O)s1 [Acetazolamide]
remaining activity at 10 µM (human NTCP [1]; read-out: %NTCP activity): 177% | remaining activity at 10 µM (human NTCP [2]; read-out: %NTCP binding): 109%

CC(=O)c1ccc(S(=O)(=O)NC(=O)NC2CCCCC2)cc1 [Acetohexamide]
remaining activity at 10 µM (human NTCP [1]; read-out: %NTCP activity): 110% | remaining activity at 10 µM (human NTCP [2]; read-out: %NTCP binding): 111%

CC(=O)c1ccc2c(c1)N(CCCN(C)C)c1ccccc1S2.O=C(O)/C=C\C(=O)O [Acetopromazine maleate salt]
%NTCP activity (human NTCP [1]; [7]): 120.852% | %NTCP binding (human NTCP [2]; [4]): 71.3376%

CC(=O)N[C@@H](CS)C(=O)O [Acetylcysteine]
remaining activity at 10 µM (human NTCP [1]; read-out: %NTCP activity): 70.1% | remaining activity at 10 µM (human NTCP [2]; read-out: %NTCP binding): 97.6%

CC(=O)Oc1ccccc1C(=O)O [Acetylsalicylic acid]
remaining activity at 10 µM (human NTCP [1]; read-out: %NTCP activity): 142% | remaining activity at 10 µM (human NTCP [2]; read-out: %NTCP binding): 96.4%

CC(=O)Oc1ccccc1C(=O)Oc1ccccc1C(=O)O [Acetylsalicylsalicylic acid]
remaining activity at 10 µM (human NTCP [1]; read-out: %NTCP activity): 66.3% | remaining activity at 10 µM (human NTCP [2]; [9]): 90.7%

Cc1cnc(C(=O)O)c[n+]1[O-] [Acipimox]
remaining activity at 10 µM (human NTCP [1]; read-out: %NTCP activity): 135% | remaining activity at 10 µM (human NTCP [2]; read-out: %NTCP binding): 82.9%

COc1cc(C)c(/C=C/C(C)=C/C=C/C(C)=C/C(=O)O)c(C)c1C [Acitretin]
remaining activity at 10 µM (human NTCP [1]; read-out: %NTCP activity): 65.7% | remaining activity at 10 µM (human NTCP [2]; [10]): 72.1%

CC(=O)Nc1ccc(CC(=O)O)cc1 [Actarit]
remaining activity at 10 µM (human NTCP [1]; read-out: %NTCP activity): 94.2% | remaining activity at 10 µM (human NTCP [2]; read-out: %NTCP binding): 90.9%

NC12CC3CC(CC(C3)C1)C2.O=C(O)/C=C/C(=O)O [Adamantamine fumarate]
%NTCP activity (human NTCP [1]; [5]): 63.0024% | %NTCP binding (human NTCP [2]; [6]): 65.3061%

COc1ccc(-c2ccc3cc(C(=O)O)ccc3c2)cc1C12CC3CC(CC(C3)C1)C2 [Adapalene]
remaining activity at 10 µM (human NTCP [1]; read-out: %NTCP activity): 97.3% | remaining activity at 10 µM (human NTCP [2]; read-out: %NTCP binding): 71.2%

Nc1ncnc2c1ncn2[C@@H]1O[C@H](COP(=O)(O)O)[C@@H](O)[C@H]1O.O [Adenosine 5'-monophosphate monohydrate]
%NTCP activity (human NTCP [1]): 52.9396% | %NTCP binding (human NTCP [2]; [3]): 76.1115%

CCOC(=O)c1cncn1[C@H](C)c1ccccc1 [Etomidate]
remaining activity at 10 µM (human NTCP [2]; read-out: %NTCP binding, Prestwick library screen, 10 µM drug, Myrcludex B-FITC binding): 102%

CC[N+](CC)(CC)CCC(O)(c1ccccc1)C1CCCCC1.[Cl-] (stereo not drawn) [Tridihexethyl chloride]
%NTCP activity (human NTCP [1]; [11]): 72.0524%

CCN(C(C)=O)c1cccc(-c2ccnc3c(C#N)cnn23)c1 [Zaleplon]
remaining activity at 10 µM (human NTCP [1]; read-out: %NTCP activity, screening taurocholate uptake, 10 µM drug, Prestwick library): 125%

Cc1cc(CC(=O)[O-])n(C)c1C(=O)c1ccc(Cl)cc1.[Na+] [Zomepirac sodium salt]
%NTCP activity (human NTCP [1]; [11]): 105.704%
